# Several values for one entry are separate records, joined by “and”; a condition that tells them apart may be missing. Equal values may be shown once.
# Tested on: histone modifications in MCF-7 cells
# Assay: Histone modification analysis by bottom-up LC-MS/MS
# Type: cell-based
# Settings: for Ratio, H33_27_40 K27me1K36me1 / Ratio, H33_27_40 K27me1K36me2 / Ratio, H33_27_40 K27me1K36me3 / Ratio, H33_27_40 K27me2K36me1 / Ratio, H33_27_40 K27me3K36me1 / Ratio, H33_27_40 K36me1 / Ratio, H33_27_40 K36me2 / Ratio, H33_27_40 unmod: KSAPSTGGVKKPHR(H33_27_40)
# From the text: In this approach. […] Histones are then extracted from cell pellets and chemically derivatized with propionic anhydride, digested with trypsin, subjected to a second round of propionylation, and analyzed by LC-MS/MS. Measuring the relative intensity of modified versus unmodified forms of individual histone peptides enables simultaneous monitoring of multiple potential biomarkers of MYST inhibition. To minimize false positives, we focused on abundant and reproducible modifications (average stoichiometry of greater than 1% across triplicate samples, standard deviation less than or equal to the average measurement). To account for potential histone modification crosstalk, changes in both acetylated and methylated peptides were evaluated. 38 modified peptides passed this reproducible detection threshold including several established KAT biomarkers[41] including H3K9Ac (KAT2A/B), H3K18Ac (KAT3A/B), H3K14Ac (KAT7), H3K23Ac (KAT6A/B), H4K16Ac (KAT8), and H2A.ZK4/K7Ac (KAT5; Fig. 4B).
# Histone modification analysis
# MCF-7 cells were cultured at 37 °C under 5% CO2 in EMEM (Quality Biological, 112-016-101) with 0.01 mg/mL human recombinant insulin (Sigma Aldrich, 91077C), 2 mM L-glutamine (Quality Biological, 118- […]
# human recombinant insulin.
# 1119, WM-3835). Following 24 h inhibitor treatment, cells were washed with ice-cold 1× PBS and scraped in 150 µL of Nuclear Isolation Buffer (NIB) containing 0.1% NP-40 for histone extraction using a modified protocol from the Garcia laboratory. 9 Briefly, cell suspensions were incubated on ice for 5 minutes, and […]
# nuclei were pelleted by centrifugation (600 rcf, 4°C, 5 min). Pelleted nuclei were washed twice with 150 μL of detergent-free NIB buffer, followed by centrifugation (600 rcf, 4°C, 5 min) to remove all detergent.
# Nuclei were then resuspended in 400 μL of 0.4 N H₂SO₄ and rotated at 4°C overnight for acid extraction of histones. The following day, samples were centrifuged (11,000 rcf, 4°C, 10 min) and the histone-containing supernatant was transferred to a fresh tube. Trichloroacetic acid (100% TCA) was added to achieve a final concentration of 20% (v/v), tubes were inverted once to mix, and histone precipitation was performed on ice for at least 3 hours or overnight at 4°C. Precipitated histones were collected by centrifugation (11,000 rcf, 4°C, 10 min) and the supernatant carefully removed, leaving a visible film of histones on the tube wall or bottom. Histone pellets were subjected to sequential washes with 1 mL of ice-cold acidified acetone (0.1% 12 N HCl) followed by 1 mL of 100% ice-cold acetone, with centrifugation (11,000 rcf, 4°C, 5 min) after each wash. Samples were air-dried at room temperature, resuspended in 40 µL of ddH₂O, and protein […]
# analysis, 1-2 µg of purified histones were loaded per lane and processed according to the general immunoblotting protocol described in General Materials and Methods.
# Analysis of histone modifications by LC-MS/MS
# Preparation of histone samples for LC-MS/MS was performed analogously to the procedure for immunoblotting above, with the following modifications. MCF7 cells (4.2 × 106) were seeded in 15 cm dishes and treated with PF-9363 or vehicle. Experiments were performed in triplicate. Following treatment and PBS washing, cells were scraped and collected in 15 mL falcon tubes, pelleted (500 rcf, 4°C, 5 min), resuspended in 1 mL cold PBS, transferred to microcentrifuge tubes, and pelleted again before flash-freezing in liquid nitrogen for storage at -80°C. For extraction, cell pellets (~100 μL) were resuspended in NIB buffer at a 1:10 ratio, and cells were lysed with NIB buffer containing 0.2% NP-40 for 8 minutes on ice. Nuclei were pelleted at 1,000 rcf for 8 minutes and washed three times with 500 μL detergent-free NIB buffer. Histones were extracted using 800 μL of 0.2 M H₂SO₄, and after centrifugation (3,400 rcf, 4°C, 10
# [1] = KSTGGKAPR(H3_9_17), PF-9363 0.1 v 30
# [2] = KSTGGKAPR(H3_9_17), dose 0.1, Replicates 1-3
# [3] = KSTGGKAPR(H3_9_17), dose 1, Replicates 1-3
# [4] = KSTGGKAPR(H3_9_17), dose 10, Replicates 1-3
# [5] = KSTGGKAPR(H3_9_17), dose 30, Replicates 1-3
smiles,measurement,setting,value
COc1cccc(OC)c1S(=O)(=O)Nc1noc2cc(Cn3cccn3)cc(OC)c12 [PF-9363],"Ratio, H33_27_40 K27me1K36me1","dose 0.1, Replicates 1-3",0.03105 and 0.01991 and 0.0237
same,"Ratio, H33_27_40 K27me1K36me2","dose 0.1, Replicates 1-3",0.1197 and 0.1193 and 0.1112
same,"Ratio, H33_27_40 K27me1K36me3","dose 0.1, Replicates 1-3",0.04514 and 0.04439 and 0.04142
same,"Ratio, H33_27_40 K27me2K36me1","dose 0.1, Replicates 1-3",0.1405 and 0.1382 and 0.1214
same,"Ratio, H33_27_40 K27me3K36me1","dose 0.1, Replicates 1-3",0.01845 and 0.01684 and 0.0146
same,"Ratio, H33_27_40 K36me1","dose 0.1, Replicates 1-3",0.0294 and 0.02308 and 0.01488
same,"Ratio, H33_27_40 K36me2","dose 0.1, Replicates 1-3",0.08428 and 0.1024 and 0.06371
same,"Ratio, H33_27_40 unmod","dose 0.1, Replicates 1-3",0.03417 and 0.02411 and 0.03004
same,"Ratio, H33_27_40 K27me1K36me1","dose 1, Replicates 1-3",0.03073 and 0.02819 and 0.0383
same,"Ratio, H33_27_40 K27me1K36me2","dose 1, Replicates 1-3",0.1247 and 0.1111 and 0.1213
same,"Ratio, H33_27_40 K27me1K36me3","dose 1, Replicates 1-3",0.04601 and 0.04253 and 0.04376
same,"Ratio, H33_27_40 K27me2K36me1","dose 1, Replicates 1-3",0.1533 and 0.1272 and 0.1444
same,"Ratio, H33_27_40 K27me3K36me1","dose 1, Replicates 1-3",0.0193 and 0.01632 and 0.01877
same,"Ratio, H33_27_40 K36me1","dose 1, Replicates 1-3",0.03026 and 0.01971 and 0.04202
same,"Ratio, H33_27_40 K36me2","dose 1, Replicates 1-3",0.01554 and 0.01779 and 0.006701
same,"Ratio, H33_27_40 unmod","dose 1, Replicates 1-3",0.03545 and 0.03942 and 0.04333
same,"Ratio, H33_27_40 K27me1K36me1","dose 10, Replicates 1-3",0.02576 and 0.02348 and 0.03374
same,"Ratio, H33_27_40 K27me1K36me2","dose 10, Replicates 1-3",0.1108 and 0.1087 and 0.1092
same,"Ratio, H33_27_40 K27me1K36me3","dose 10, Replicates 1-3",0.0403 and 0.03824 and 0.04147
same,"Ratio, H33_27_40 K27me2K36me1","dose 10, Replicates 1-3",0.141 and 0.1627 and 0.1276
same,"Ratio, H33_27_40 K27me3K36me1","dose 10, Replicates 1-3",0.0177 and 0.02076 and 0.01377
same,"Ratio, H33_27_40 K36me1","dose 10, Replicates 1-3",0.03075 and 0.02408 and 0.03247
same,"Ratio, H33_27_40 unmod","dose 10, Replicates 1-3",0.02969 and 0.03143 and 0.03433
same,"Ratio, H33_27_40 K27me1K36me2","dose 30, Replicates 1-3",0.1264 and 0.1323 and 0.1144
same,"Ratio, H33_27_40 K27me1K36me3","dose 30, Replicates 1-3",0.04365 and 0.04705 and 0.04027
same,"Ratio, H33_27_40 K27me2K36me1","dose 30, Replicates 1-3",0.1338 and 0.1968 and 0.193
same,"Ratio, H33_27_40 K27me3K36me1","dose 30, Replicates 1-3",0.01979 and 0.01784 and 0.0196
same,"Ratio, H33_27_40 K36me1","dose 30, Replicates 1-3",0.02263 and 0.02698 and 0.02541
same,"Ratio, H33_27_40 K36me2","dose 30, Replicates 1-3",0.07884 and 0.0484 and 0.03683
same,"Ratio, H33_27_40 unmod","dose 30, Replicates 1-3",0.05134 and 0.05555 and 0.03758
same,"Fold-change 0.1 v 30, H3_9_17 K9me1",[1],0.60
same,"Fold-change 0.1 v 30, H3_9_17 unmod",[1],0.84
same,"Ratio, H3_9_17 K9me1",[2],0.0627 and 0.06086 and 0.06234
same,"Ratio, H3_9_17 unmod",[2],0.1551 and 0.1517 and 0.1473
same,"Ratio, H3_9_17 K9me1",[3],0.09513 and 0.07619 and 0.08786
same,"Ratio, H3_9_17 unmod",[3],0.1856 and 0.163 and 0.1825
same,"Ratio, H3_9_17 K9me1",[4],0.07501 and 0.08781 and 0.08267
same,"Ratio, H3_9_17 unmod",[4],0.1748 and 0.1913 and 0.1844
same,"Ratio, H3_9_17 K9me1",[5],0.113 and 0.09659 and 0.09797
same,"Ratio, H3_9_17 unmod",[5],0.1888 and 0.1674 and 0.1816
same,change of exclusively methylated histone peptides,"MCF-7 cells, 24 h, 0.1-30 μM",No exclusively methylated peptides were significantly changed
same,"Ratio, H2A1_1_11 K5ac","PF-9363 0.1, Replicates 1-3",0.7579 and 0.8858 and 0.9126
same,"Ratio, H2A1_4_11 K5ac","PF-9363 0.1, Replicates 1-3",0.04777 and 0.02277 and 0.05587
same,"Ratio, H2A1_4_11 K9ac","PF-9363 0.1, Replicates 1-3",0.03233 and 0.06167 and 0.02731
same,"Ratio, H2A1_4_11 unmod","PF-9363 0.1, Replicates 1-3",0.9133 and 0.8999 and 0.9064
same,"Ratio, H2A1_36_42 unmod","PF-9363 0.1, Replicates 1-3",0.9989 and 0.9996 and 0.9988
same,"Ratio, H2A3_36_42 unmod","PF-9363 0.1, Replicates 1-3",1
same,"Ratio, H2AJ_4_11 K5acK9ac","PF-9363 0.1, Replicates 1-3",0.9051 and 0.8313 and 0.8743
same,"Ratio, H2AV_1_19 K4ac","PF-9363 0.1, Replicates 1-3",0.05734 and 0.02419 and 0.03954
same,"Ratio, H2AV_1_19 unmod","PF-9363 0.1, Replicates 1-3",0.8773 and 0.9119 and 0.8859
same,"Ratio, H2AX_4_11 unmod","PF-9363 0.1, Replicates 1-3",0.2967 and 0.2834 and 0.276
same,"Ratio, H2AX_36_42 unmod","PF-9363 0.1, Replicates 1-3",1
same,"Ratio, H2AZ_1_19 unmod","PF-9363 0.1, Replicates 1-3",0.876 and 0.8713 and 0.8714

# — doi:10.1101/2025.04.25.650653, “Hierarchical small molecule inhibition of MYST acetyltransferases” (bioRxiv, 2025)
